# Out of some 310,000 compounds screened, about 2,200 (0.71%) showed an effect of 50% or more. The effect is printed as a negative number. The list shows a part of the results.
# Target: human ether-à-go-go-related gene (hERG) potassium channel (human, UniProt Q12809)
# Assay: primary screen, population patch clamp on CHO cells stably expressing hERG
# Sequence of human ether-à-go-go-related gene (hERG) potassium channel (Q12809 whole entry, looked up): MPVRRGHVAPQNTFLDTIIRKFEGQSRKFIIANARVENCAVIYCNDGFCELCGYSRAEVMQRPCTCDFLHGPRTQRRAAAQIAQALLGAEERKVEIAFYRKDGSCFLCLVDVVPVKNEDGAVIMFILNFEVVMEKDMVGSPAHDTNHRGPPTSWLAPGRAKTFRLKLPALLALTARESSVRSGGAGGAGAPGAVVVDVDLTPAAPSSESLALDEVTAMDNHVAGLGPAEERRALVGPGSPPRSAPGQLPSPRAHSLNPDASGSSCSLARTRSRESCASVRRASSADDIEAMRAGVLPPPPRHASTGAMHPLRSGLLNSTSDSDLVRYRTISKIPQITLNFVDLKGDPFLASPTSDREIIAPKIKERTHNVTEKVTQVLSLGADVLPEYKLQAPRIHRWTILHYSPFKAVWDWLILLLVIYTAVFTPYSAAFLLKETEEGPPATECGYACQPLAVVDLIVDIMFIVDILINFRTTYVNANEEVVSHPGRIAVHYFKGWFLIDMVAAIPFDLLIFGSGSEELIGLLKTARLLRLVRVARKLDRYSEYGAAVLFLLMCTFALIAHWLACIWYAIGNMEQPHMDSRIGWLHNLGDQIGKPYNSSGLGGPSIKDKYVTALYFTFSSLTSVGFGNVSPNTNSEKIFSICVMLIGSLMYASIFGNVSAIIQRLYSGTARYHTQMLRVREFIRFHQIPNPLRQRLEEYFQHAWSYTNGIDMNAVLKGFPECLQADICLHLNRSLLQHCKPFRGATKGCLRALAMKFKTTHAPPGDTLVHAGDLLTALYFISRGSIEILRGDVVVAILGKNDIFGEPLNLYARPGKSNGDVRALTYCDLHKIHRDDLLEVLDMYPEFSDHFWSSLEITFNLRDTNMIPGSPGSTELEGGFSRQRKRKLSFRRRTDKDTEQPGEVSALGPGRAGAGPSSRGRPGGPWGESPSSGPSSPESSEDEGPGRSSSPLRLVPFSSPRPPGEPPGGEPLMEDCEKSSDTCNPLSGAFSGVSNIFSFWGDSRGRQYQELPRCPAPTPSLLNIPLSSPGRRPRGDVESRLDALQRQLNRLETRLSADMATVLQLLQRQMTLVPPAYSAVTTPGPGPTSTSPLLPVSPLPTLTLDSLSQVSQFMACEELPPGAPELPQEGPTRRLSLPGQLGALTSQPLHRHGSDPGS
row,Structure (SMILES),"hERG current change (%, negative = inhibition) at 1uM"
1,CCOc1ccc(NC(=O)C2CCN(S(=O)(=O)c3ccc4c(c3)CC(C)N4C(C)=O)CC2)cc1 (stereo not shown),10.7%
2,C/C(=N\NC(=O)c1nnn(-c2nonc2N)c1-c1cccs1)c1cccc(O)c1,2.42%
3,CC1=C(C(=O)NC2CC(C)(C)Cc3c2cnn3-c2ccc(C)cc2)OCCO1 (stereo not shown),-8.97%
4,COc1ccc(NC(=O)CCC(=O)N/N=C/c2cccnc2)cc1,7.64%
5,C[C@@H]1CCC2[C@](C)(CO)[C@@H](O)CC[C@]2(C)[C@@]12CC[C@@](CO)(CC(=O)[O-])O2.[Na+] (stereo partly shown),12.5%
6,CC(=O)N1c2ccc(S(=O)(=O)NCCc3ccc(Cl)cc3)cc2CC1C (stereo not shown),15.8%
7,Cc1ccc(-n2nc3ccc(NC(=S)NC(=O)/C=C/c4ccco4)cc3n2)cc1,2.22%
8,COc1cccc(/C=C/C(=O)NCC2CCCCC2)c1,13.8%
9,CCCCC(c1nnnn1CS(=O)(=O)c1ccc(C)cc1)N1CCN(C)CC1.Cl (stereo not shown),8.9%
10,Cc1cccn2c(=O)c(/C=C(\C#N)S(=O)(=O)c3ccccc3)c(N3CCC(C(N)=O)CC3)nc12,10.1%
11,CCC(C(=O)NC(C)(C)C)N(C(=O)c1ccc(Cl)nc1)C1CCCC1 (stereo not shown),10.1%
12,Cc1ccc(Oc2cc(N3CCOCC3)nc(-c3ccccc3)n2)cc1,0.258%
13,CCCCOc1ccc2ccccc2c1C=O,18.6%
14,CC(=O)c1cccc(NC(=O)CCc2nnc3ccc(NCc4ccc5c(c4)OCO5)nn23)c1,17%
15,Cc1nnc(-c2cnn(-c3ccccc3)c2N)n1Cc1ccncc1,2.39%
16,COc1cc2c(cc1OC)C(C)N(C(=O)c1cc(Cl)nc(Cl)c1)CC2 (stereo not shown),12.2%
17,O=C(Nc1ccc(F)cc1)c1ccc(Br)c(S(=O)(=O)N2CCOCC2)c1,-2.86%
18,Cc1ccc(OCC(=O)NNC(=O)CCC(=O)Nc2ccc(C)cc2C)cc1,17.4%
19,CC(=O)Nc1cccc(NC(=O)CCn2c(=O)sc3ccccc32)c1,22.2%
20,O=C(NC1CCCCC1)C(c1ccco1)N(C(=O)c1csnn1)c1ccccc1 (stereo not shown),7.66%
21,CN(C)S(=O)(=O)N1CCC(CO)(CCc2ccccc2)CC1,12%
22,COC(=O)CCCC1=CC2=CC(=O)C(C)(OC(=O)c3cccs3)C(=O)C2=CN1C1CC1 (stereo not shown),14.7%

row,Structure (SMILES),"hERG current change (%, negative = inhibition) at 1uM"
1,O=C(Nn1cnnc1)c1cccc(S(=O)(=O)N2CCOCC2)c1,14.6%
2,CSCC[C@H](NC(=O)OC(C)(C)C)C(=O)N/N=C/c1cc2ccc(C)cc2nc1Cl,7.11%
3,CCc1ccccc1NC(=O)CCc1nc(-c2ccc(C)cc2)no1,9.68%
4,CCn1c2ccccc2c2nnc(SCC(=O)N3CC(C)OC(C)C3)nc21 (stereo not shown),0.801%
5,O=C(COc1ccccc1[N+](=O)[O-])NCc1cccnc1,-1.72%
6,O=C(N/N=C/c1ccco1)C12CC3CC(CC(C3)C1)C2,16.7%
7,COc1cc2c(cc1NC(=O)COC(=O)[C@@H](NS(=O)(=O)c1cccc(Cl)c1)C(C)C)oc1ccccc12,16.3%
8,CCOc1ccc(CN2CCNC(=O)C2CC(=O)NCCN2CCOC2=O)cc1 (stereo not shown),11.8%
9,COc1ccc(NC(=O)C/C(C)=N/NC(=O)c2ccco2)c([N+](=O)[O-])c1,-5.76%
10,CCOc1ccccc1C1C(C#N)=C(N)Oc2cc(C)n(C)c(=O)c21 (stereo not shown),6.55%
11,Cc1cc(C(=O)OCC(=O)NC2CCCCC2)c(C)o1,13.3%
12,O=[N+]([O-])c1sccc1CS(=O)(=O)c1ccccc1,3.21%
13,C[C@@H](C(=O)Nc1ccc2ccccc2c1)[C@H]1C[C@]1(C)[C@H](NC(=O)c1cnccn1)c1ccccc1,14.6%
14,COc1ccc(S(=O)(=O)N(C)CC(=O)Nc2ccc3c(c2)OCO3)cc1,-8.35%
15,CC(C)N1CC23C=CC(O2)C(C(=O)OCc2ccccc2)C3C1=O (stereo not shown),1.79%
16,COc1ccc(C2CC(c3cccc(C)c3)n3nc(N)nc3N2)cc1 (stereo not shown),-8.57%
17,Cc1ccc(CNC(=O)C2CC(c3cccc(F)c3)=NO2)cc1 (stereo not shown),10.2%
18,COc1ccc(-n2c(C(C)(C)C)csc2=Nc2c(C)n(C)n(-c3ccccc3)c2=O)cc1,8.01%
19,O=C(Nc1ccccc1)c1nnsc1S(=O)(=O)c1ccc(Cl)cc1,7.55%
20,C=CCNC(=S)NNC(=O)c1cccc2ccccc12,6.67%
21,CCCCN(C)CCCNC(=O)c1cc(Nc2ccc(OC)c(OC)c2)nc2ccccc12,12%
22,O=C1[C@H]2[C@H](C=CC[C@H]2C(=O)N2CCOCC2)CCN1Cc1ccccc1,2.87%

row,Structure (SMILES),"hERG current change (%, negative = inhibition) at 1uM"
1,CCCCNC(=O)C1Cc2cc(S(=O)(=O)N3CCCC3)ccc2N1C(C)=O (stereo not shown),10.6%
2,CCCc1cc(=O)c2ccc(OC/C(C)=N/O)cc2o1,9.62%
3,Cc1c(OCC(=O)NCCCN2CCOCC2)ccc2c(-c3ccccc3)cc(=O)oc12,3.35%
4,O=C(O)CCc1[nH]c2ccccc2c1Sc1ccccc1,18.4%
5,CN(C)S(=O)(=O)c1ccc(C(=O)OCC(=O)Nc2cccnc2Cl)cc1,11.6%
6,CN(C)c1ccc(C(CC(=O)O)C(=O)O)cc1 (stereo not shown),12.7%
7,CN(C)S(=O)(=O)c1cccc(NC(=O)COC(=O)c2cc(-c3cccc(Br)c3)nc3ccccc23)c1,6.67%
8,CC(C)CCN1CCN(Cc2cccn2-c2nccs2)CC1CCO (stereo not shown),-17.6%
9,Cc1cccc(N=Nc2c(C)nn(-c3ccccc3)c2N)c1C,4.34%
10,Cc1cccc(-c2noc(CN(C)C(=O)c3ccc4c(c3)OCO4)n2)c1,8.63%
11,CCOc1ccccc1N=NC1C(=O)N(C(N)=S)N=C1C (stereo not shown),-2.02%
12,Cc1nn(C2CCS(=O)(=O)C2)c(Cl)c1/C=C/C(=O)OCC(=O)c1c[nH]c2ccccc12 (stereo not shown),3.66%
13,COc1ccc(NC(=O)[C@@H]2CC=C[C@@H]3CCN(Cc4ccccc4)C(=O)[C@@H]32)cc1,10.7%
14,CS(=O)(=O)N1CCCC(c2nc(-c3ccc(S(=O)(=O)NCc4ccccc4)cc3)no2)C1 (stereo not shown),-0.704%
15,Cc1cccc(NC(=O)CN(C)S(=O)(=O)c2cccc3nsnc23)c1C,3.52%
16,Cc1cccc(NC(=O)COc2ccc(/C=N\n3cnnc3)cc2)c1,-3.16%
17,O=C(COc1ccccc1[N+](=O)[O-])OCCCOC(=O)COc1ccccc1[N+](=O)[O-],1.57%
18,Cc1occc1C(=O)NNC(=S)NC(=O)COc1ccc(Cl)cc1Cl,3.27%
19,Cc1ccc(N2CC(C(=O)Nc3cccnc3)CC2=O)cc1 (stereo not shown),3.5%
20,COc1ccc(NC(=O)c2[nH]c(C)c(C(C)=O)c2C)cc1S(=O)(=O)N1CCOCC1,4.45%
21,COc1ccccc1Nc1nc2ccccc2n1C,8%
22,O=C(NCc1ccccc1)/C(=C\c1ccc(O)cc1)NC(=O)c1ccco1,2.92%

row,Structure (SMILES),"hERG current change (%, negative = inhibition) at 1uM"
1,Cc1ccc(N(C(=O)c2csnn2)C(C(=O)NCc2ccccc2)c2cccnc2)cc1 (stereo not shown),13.5%
2,FC(F)(F)c1cc(C(F)(F)F)c2ccc(N3CCN(c4ccc(Cl)cc4)CC3)nc2n1,6.03%
3,CNC(=S)N(Cc1ccccc1)Cc1cccnc1,14.1%
4,CS(=O)(=O)N(CC(=O)N1CCOCC1)c1cccc([N+](=O)[O-])c1,6.43%
5,Cl.Nc1ccc(N(CCO)CCO)cc1,13.7%
6,CCCCn1c(SCc2nc(N)nc(N3CCCCC3)n2)nc2c1c(=O)n(C)c(=O)n2C,8.65%
7,CNc1ccccc1C(=O)OCC(C)=O,12.9%
8,COC(=O)C1=C(c2ccc(F)cc2OCc2ccccc2)C[C@@H]2CC[C@H]1N2C(=O)NCc1ccc(C)cc1,12.6%
9,O=c1c2ccccc2cnn1Cc1n[nH]c(=S)n1-c1ccc(F)cc1,12.6%
10,CC1=CC(=NOC(=O)c2cccc([N+](=O)[O-])c2)C=C(C)C1=O,14.1%
11,CCN(C(=O)C1CCCN1S(=O)(=O)c1cccc2nsnc12)c1ccccc1 (stereo not shown),5.18%
12,Cc1oc2ccc(O)cc2c1C(=O)c1ccc(Cl)cc1,12.8%
13,O=C1CCCN1CN(C(=O)c1ccccc1)c1ccc(F)cc1,12.2%
14,CCOc1ccc(NC(=O)N2CCc3ccccc3C2)cc1,8.42%
15,C/C(=N\O)c1cccc(Br)c1,13.7%
16,Cc1ccnc(NS(=O)(=O)c2ccc(NC(=O)C3CCCCC3)cc2)n1,16.7%
17,COc1cc(C2Nc3ccccc3C(=O)N2NS(C)(=O)=O)ccc1O (stereo not shown),11.3%
18,Cc1[nH+]csc1CCOC(=O)c1ccccc1.[Cl-],19.7%
19,CC(C)(C)NC(=O)CSC(=Nc1ccc(F)cc1)NC#N,2.78%

# Source: article PMC4336329 (PLoS ONE, 2015)
